Assay results from PubChem BioAssay AID652106 (National Center for Advancing Translational Sciences (NCATS), 2013).
Hit rate of the full screen: of about 370,000 compounds, about 500 (0.14%) were called active. Inconclusive means that the source gave no clear call. Such entries were picked first, then a sample of the others. Calls come from the whole dose curve; as a rule, active = well fitted activation curve with a large enough effect; inconclusive = small, poorly fitted or top-dose-only effect; inactive = no such curve, though single readings can be large or run the other way. Potencies of inconclusive entries are left out as doubtful fits.
Potency is the fitted concentration of half-maximal effect; tags give direction and shape of the fitted curve.

Assay: qHTS of alpha-syn Inhibitors; note: nearly all actives have a fitted effect of over 65% in size; for growth rescue (activation): % of control where 0% means no effect
Conditions: Yeast expressing alpha-synuclein, BacTiter-Glo, 24 h; Potency: growth rescue; growth rescue (activation): at 46.1 µM (top of the series)
Summary of the method: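 Readout is rescue of growth in alpha-synuclein-expressing yeast, so inhibitors of toxicity appear as activators. Growth after 24 hr at 30 deg C in galactose medium is quantified by luminescence.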
In the case of COc1ccc(C)cc1NC(=O)c1cccn(Cc2ccccc2Cl)c1=O, the Potency is reported as inconclusive [activator, single point]. With O=C(NCCc1ccccc1)[C@@H]1CC=C[C@@H]2CCN(Cc3ccc(Cl)c(Cl)c3)C(=O)[C@@H]21 the Potency was inconclusive [activator, single point]. In the case of C#CC1(O)C=CC2C3CCC4=CC(=O)CCC4C3CCC21CC (stereo not drawn), the Potency is reported as “inactive”. With Clc1ccc(-c2csc3ncnc(Sc4nnnn4C4CC4)c23)cc1 the Potency was inconclusive [activator, single point]. For CC(C)(C)C(O)C(Oc1ccc(Cl)cc1)n1cncn1 (stereo not drawn), the Potency was inconclusive [activator, full curve, poor fit]. In the case of CCOC(=O)[C@]12Cc3ccccc3[C@H]1N(CCC(=O)OC)C(=O)c1cc(OC)ccc12, the Potency is reported as inconclusive [activator, single point]. For CCOP(=O)(OCC)/C(C#N)=C/c1ccc(Br)cc1, the Potency was inconclusive [activator, single point]. For CCOC(=O)c1cc(C)sc1/N=C/C1C(=O)NC(=S)NC1=O, the Potency was inconclusive [activator, single point]. With O=C(Oc1ccc(Br)cc1C(=S)N1CCCC1)c1ccccc1Cl the Potency was inconclusive [activator, single point]. In the case of C[C@H]1CC[C@@]2(C)[C@@H](CC[C@@H]3[C@@H]2CC[C@]2(C)[C@@H](O)CC[C@@H]32)C1, the Potency is reported as inconclusive [activator, single point]. For COc1ccc(O)c2c(=O)c3c(OC)cc4c(c3oc12)C1C=COC1O4 (stereo not drawn), the Potency was inconclusive [activator, single point]. For CC(=O)[C@H]1[C@H](C#N)C[C@H]2[C@@H]3CC=C4C[C@@H](O)CC[C@]4(C)[C@H]3CC[C@@]21C, the Potency was inconclusive [activator, single point]. For CCCc1[nH][nH]c(=O)c1C(c1ccc(Cl)cc1)C(C#N)C#N (stereo not drawn), the Potency was inconclusive [activator, single point]. With Cc1cc(/C=C/c2cccc3sc(C)[n+](CCCCI)c23)ccc1N(CCCl)CCCl the Potency was inconclusive [activator, single point]. In the case of CC12CC(=O)C3C(CCC4CC=CCC43C)C1CCC2=O (stereo not drawn), the Potency is reported as “inactive”. For BrCC(Br)(Br)Br, the Potency was inconclusive [activator, single point]. In the case of O=c1oc2ccccc2c(O)c1[C@H]1c2ccc(O)cc2Oc2c1c(=O)oc1ccccc21, the Potency is reported as active: 0.562 µM. In the case of Cc1ccc(S(=O)(=O)NCCC(=O)Nc2ccc(Cl)cc2C(=O)c2ccccc2)cc1, the Potency is reported as inconclusive [activator, single point]. For c1ccc(CCNC2CCCCCC2)cc1, the Potency was inconclusive [activator, single point]. In the case of CC(=O)OC[C@]12CCC(C)=C[C@H]1O[C@@H]1[C@H](O)[C@@H](OC(C)=O)[C@@]2(C)[C@]12CO2, the Potency is reported as inconclusive [activator, single point]. For C[C@]12CC[C@H](O)CC1=CC[C@@H]1[C@@H]2CC[C@]2(C)C(=O)CC[C@@H]12, the Potency was inconclusive [activator, partial curve]. For CCc1ccc(NP(=O)(Oc2ccccc2F)Oc2ccccc2F)cc1, the Potency was inconclusive [activator, single point]. With Cc1ccc(-n2c(=S)[nH]c3ccccc3c2=O)cc1F the Potency was inconclusive [activator, single point]. With [O]=[Sb]([OH])([OH])[c]1ccccc1 the Potency was inconclusive [activator, single point]. With c1ccc(Nc2ccc(Nc3ccccc3)cc2)cc1 the Potency was inconclusive [activator, single point]. For COc1ccc(S(=O)(=O)N(C)C[C@H]2OCCCC[C@H](C)Oc3ccc(N(C)C)cc3C(=O)N([C@H](C)CO)C[C@@H]2C)cc1, the Potency was inconclusive [activator, single point]. With CCCCCCCCC(c1nc2cc(C)c(C)cc2[nH]1)n1c(=O)c(-c2ccccc2Br)nc2ccccc21 (stereo not drawn) the Potency was inconclusive [activator, single point]. With Cc1ccc(NP(=O)(Oc2ccccc2F)Oc2ccccc2F)cc1 the Potency was inconclusive [activator, single point]. With C=CCc1ccc(OCCn2nnc3ccccc32)c(OC)c1 the Potency was inconclusive [activator, single point]. For CCCCC[C@@H]1CCCCC[C@@H](O)C[C@@H](O)[C@@H](O)/C=C/C(=O)O1, the Potency was inconclusive [activator, single point]. In the case of CN(C)C=C1C(=O)N(C2CCCCC2)C(=O)N(C2CCCCC2)C1=O, the Potency is reported as inconclusive [activator, single point]. With Clc1ccc(COC(Cn2ccnc2)c2ccc(Cl)cc2Cl)cc1 (stereo not drawn) the Potency was inconclusive [activator, full curve]. In the case of C[C@H]1CCCC(=O)CCCCCc2cc(O)cc(O)c2C(=O)O1, the Potency is reported as inconclusive [activator, single point]. In the case of O=c1[nH]c2ccccc2n1C1CCN(C(c2cc3ccccc3o2)c2nnnn2Cc2ccccc2)CC1 (stereo not drawn), the Potency is reported as “inactive”. In the case of CC(=O)O[C@H]1CC[C@@]2(C)C(=CC[C@@H]3[C@@H]2CC[C@]2(C)C(=O)CC[C@@H]32)C1, the Potency is reported as inconclusive [activator, partial curve]. In the case of Nc1ccc2c(c1)Cc1cc([N+](=O)[O-])ccc1-2, the Potency is reported as inconclusive [activator, single point]. For C[C@H]1COC(=O)[C@@H](Cc2ccc(F)cc2)CC/C=C/C[C@H](CC(=O)N(CCO)Cc2ccccc2)C(=O)N1, the Potency was inconclusive [activator, single point]. With CCCCn1c(N)c(C(=O)NCCN2CCOCC2)c2nc3ccccc3nc21 the Potency was “inactive”. In the case of COc1ccc(OC)c(N=Cc2c(O)n(Cc3ccccc3)c(=S)[nH]c2=O)c1, the Potency is reported as “inactive”. For COC(=O)C12OCC34C(CC5C(C)=C(O)C(=O)CC5(C)C3C(O)C1O)OC(=O)C(OC(=O)/C=C(\C)C(C)C)C24 (stereo not drawn), the Potency was inconclusive [activator, single point]. For CC(=O)c1ccc2c(c1)C1C(Cl)C(Sc3ccccc3[N+](=O)[O-])CC1C(c1ccccc1)N2 (stereo not drawn), the Potency was “inactive”. With COC(=O)C1=C(c2ccc(Cl)c(C(F)(F)F)c2)C[C@@H]2CC[C@H]1N2C(=O)N1CCC(O)(c2ccc(Cl)cc2)CC1 the Potency was inconclusive [activator, single point]. For CCC(=O)c1cn(Cc2ccccc2)c2ccccc12, the Potency was “inactive”. For C[C@H]1CCC[C@@H](O)CCC/C=C/c2cc(O)cc(O)c2C(=O)O1, the Potency was “inactive”. With COC(=O)C1=C(c2ccc3ccccc3c2)C[C@@H]2CC[C@H]1N2C(=O)NCc1ccc(F)cc1 the Potency was inconclusive [activator, single point]. In the case of COc1ccc(C2C3C=CC(C3)C2C(=O)O)cc1 (stereo not drawn), the Potency is reported as inconclusive [activator, single point]. With S=C(NCCc1ccccc1)N1Cc2cc(Br)ccc2-n2nncc2C1 the Potency was inconclusive [activator, partial curve]. With Cn1cc(C(=O)OCC(=O)N2CCCC2)c2ccccc21 the Potency was inconclusive [activator, single point]. With Cc1ccc(OC(=O)N(C)C[C@@H]2OCc3cnnn3CCCC(=O)N([C@@H](C)CO)C[C@H]2C)cc1 the Potency was inconclusive [activator, single point]. In the case of Cc1ccc(NP(=O)(Oc2ccccc2F)Oc2ccccc2F)cc1C, the Potency is reported as inconclusive [activator, single point]. For O=C1C(=O)C(Cl)=C(Cl)C(Cl)=C1Cl, the Potency was inconclusive [activator, single point]. With COc1ccc(NC(=S)N2Cc3ccccc3-n3nncc3C2)c(OC)c1 the Potency was “inactive”. With CCOC(=O)[C@]12Cc3cc(Cl)ccc3[C@H]1N(C)C(=O)c1cc(OC)ccc12 the Potency was “inactive”. In the case of COC(=O)c1ccc(N2C(=O)CC(N3CCC(n4c(=O)[nH]c5ccccc54)CC3)C2=O)cc1 (stereo not drawn), the Potency is reported as “inactive”. In the case of C[N+]1(C)C2CCC1CC(OC(=O)c1ccco1)C2 (stereo not drawn), the Potency is reported as inconclusive [activator, single point]. With COC1C(C)OC(OC2CC(C)(O)Cc3cc4c(c(O)c32)C(=O)c2c(O)cc3c(c2C4=O)OC2OC3(C)C(O)C(N(C)C)C2O)C(OC)C1(C)OC (stereo not drawn) the Potency was inconclusive [activator, single point]. In the case of CCN(CC)c1ccc(CC2C(=O)N(C)C(=O)N(C)C2=O)cc1, the Potency is reported as inconclusive [activator, single point]. In the case of CC1=C(C(=O)N2CCC3(CC2)OCCO3)C2(CCC(C)CC2)OC1=O (stereo not drawn), the Potency is reported as “inactive”. In the case of COc1ccc(C(=O)c2nc3ccccc3n2C(C)C)cc1, the Potency is reported as inconclusive [activator, single point]. With O=S(=O)(c1cc(Cl)cc(Cl)c1)N1Cc2cc(-c3ccccc3)ccc2-n2nncc2C1 the Potency was “inactive”. With CC1CCN(c2cc(Br)c([N+](=O)[O-])cc2F)CC1 the Potency was inconclusive [activator, partial curve]. With C[C@H]1OC[C@@H](C[N+](C)(C)C)O1 the Potency was inconclusive [activator, single point]. For CC1=CC2OC3CC4OC(=O)C=CC=CC(=O)OCCC(C)C(O)C(=O)OCC2(CC1O)C4(C)C31CO1 (stereo not drawn), the growth rescue (activation) was inconclusive: -60.6% [activator].
